The whole screen tested about 390,000 compounds, of which about 930 (0.24%) were called active. This list was built around the results that the source calls inconclusive (neither active nor inactive); the mix of calls is not that of the screen. Calls come from the whole dose curve; as a rule, active = well fitted activation curve with a large enough effect; inconclusive = small, poorly fitted or top-dose-only effect; inactive = no such curve, though single readings can be large or run the other way. Potencies of inconclusive entries are doubtful fits and often do not repeat.
Test: qHTS for Suppressors of FUS Proteinopathy: Primary screen using FUS-linked yeast assay; note: nearly all actives have a fitted effect of over 55% in size;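 for growth rescue (activation): plate controls were DMSO vehicle for no effect and reference control for full effect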
Conditions: S. cerevisiae FUS-expressing, OD600, 24 h; Potency: growth rescue; growth rescue (activation): at 76.6 µM (top of the series)
In short: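 Restored growth of FUS-toxic S. cerevisiae, read as 600 nm absorbance after 24 h at 30C in galactose medium (starting OD 0.005). Controls CP55940 and DMSO.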
Potency is the fitted concentration of half-maximal effect; tags give direction and shape of the fitted curve.

Structure (SMILES)	Potency	growth rescue (activation)
CCC1(c2ccc(C)cc2)NC(=O)N(CC(=O)Nc2cccc(S(=O)(=O)N3CCCC3)c2)C1=O (centres undefined)	inconclusive: 14.1 µM [activator, partial curve, poor fit]	
CC(CNC(=O)Cn1ncc2c3ccccc3n(Cc3cccc(Cl)c3)c2c1=O)c1ccccc1 (centres undefined)		inactive: -10.9%
COCc1ccc(-c2c(-c3cc(OC)cc(OC)c3)oc(=O)c3cc(OC)c(OC)cc23)cc1	inconclusive: 28.2 µM [activator, partial curve]	
COc1ccc(/C(O)=C2/C(=O)C(=O)N(CC3CCCO3)C2c2cccc(O)c2)cc1 (centres undefined)	inconclusive: 39.8 µM [activator, partial curve, poor fit]	
COc1ccc(C(=S)N2CCOCC2)cc1OC(=O)c1ccccc1Cl	inconclusive: 17.8 µM [activator, partial curve, poor fit]	
Cc1cccc(C)c1Cn1c(C)c(C(=O)NCc2ccc([N+](=O)[O-])cc2)sc1=O	inconclusive: 22.4 µM [activator, partial curve, poor fit]	
CN1C2=N[C@@H](c3ccc4ccccc4c3)CC(=O)N2/C(=C\c2ccccc2)[C@H]1c1ccccc1	inconclusive: 20 µM [activator, single point]	
Cc1ccccc1NC1=CC(=O)CC(C)(C)C1		inactive: -11.1%
CCN(CC)c1ccc(SS(=O)(=O)O)cc1	inconclusive: 11.2 µM [activator, single point]	
CCC(c1nnnn1CCc1ccccc1)N(Cc1ccco1)Cc1cc2cc(C)cc(C)c2[nH]c1=O (centres undefined)	inconclusive: 31.6 µM [activator, single point]	
CCn1c(=NC(=O)CS(=O)(=O)c2ccc(C)cc2)sc2cccc(OC)c21		inactive: 0.817%
CC(C)[C@H](NC(=O)c1c(F)cccc1F)C(=O)N1CCN(c2ccc(F)cc2)CC1	inconclusive: 31.6 µM [activator, partial curve, poor fit]	
Cc1cc(Cn2nc(C(=O)NCc3cccc(C(F)(F)F)c3)cc2-c2ccccc2)on1	inconclusive: 28.2 µM [activator, partial curve, poor fit]	
Cc1nc2cc(-c3cccc(F)c3)nn2c(C)c1CCC(=O)NC1CCCCC1		inactive: -8.53%
COc1ccc(NC(=O)C(c2ccc(OC)cc2)n2c(=O)c(-c3cc4ccccc4[nH]3)nc3ccccc32)cc1 (centres undefined)	inconclusive: 3.98 µM [activator, full curve, poor fit]	
COc1cc(OC)c2c(-c3ccccc3)cc(=O)oc2c1C(CC(=O)N1CCOCC1)c1ccc2c(c1)OCO2 (centres undefined)	inconclusive: 50.1 µM [activator, single point]	
Cc1ccc(S(=O)(=O)N2[C@@H](c3ccc(C(C)(C)C)cc3)C(C(=O)O)=CC[C@H]2c2cccs2)cc1	inconclusive: 31.6 µM [activator, single point]	
Cc1onc(-c2c(F)cccc2Cl)c1C(=O)Nc1cccc(S(=O)(=O)N2CCCCC2)c1	inconclusive: 44.7 µM [activator, single point]	
COc1ccc(-c2nn(C)c3sc(C(=O)N4CCN(c5cc(Cl)ccc5C)CC4)cc23)cc1OC	inconclusive: 31.6 µM [activator, single point]	
Cc1ccc(NC(=O)CN2C(=O)CCc3cc(S(=O)(=O)N4CCOCC4)ccc32)c(C)c1		inactive: 8.83%

Structure (SMILES)	Potency	growth rescue (activation)
Oc1ccc(C[C@H]2CNC(=S)N2CC2CCCN2C[C@H](Cc2ccc(O)cc2)N2C[C@H](Cc3ccccc3)N(CC3CCCCC3)C2=S)cc1 (some centres undefined)	inconclusive: 28.2 µM [activator, single point]	
CC(=O)c1ccc(NS(=O)(=O)c2ccc3[nH]c4c(c3c2)CCCCCC4)cc1	inconclusive: 50.1 µM [activator, single point]	
COc1ccc(C2OCCNC3C2C(=O)N(Cc2ccc(OC)cc2OC)C3Cc2ccccc2)cc1 (centres undefined)		inactive: 21.3%
COc1ccccc1N1CCN(C(=O)c2cc(-c3ccc(F)cc3)on2)CC1	inactive	
CCN(c1cccc(C)c1)S(=O)(=O)c1nnc(NC(=O)c2ccccc2Cl)s1		inactive: 7.44%
CCCCOc1ccc(N(CC(=O)NC(C)(C)CC)C(=O)CCC(=O)Nc2ccccn2)cc1	inconclusive: 28.2 µM [activator, partial curve, poor fit]	
COc1ccc2cc(CN(CC3CCCO3)C(=S)Nc3ccccc3)c(=O)[nH]c2c1 (centres undefined)	inconclusive: 35.5 µM [activator, single point]	
CN(CC(=O)Nc1ccc(N2CCOCC2)cc1)CC(=O)Nc1ccc(Cl)cc1[N+](=O)[O-]	inconclusive: 25.1 µM [activator, partial curve, poor fit]	
C[C@@H](c1ccccc1)N1C[C@@H](COCc2ccccc2)Oc2cc(N3CCC[C@H]3C(N)=O)ccc2S1(=O)=O	active: 22.4 µM	
COc1cc(NC(=O)C2CCCN(S(=O)(=O)c3ccccc3[N+](=O)[O-])C2)cc(OC)c1 (centres undefined)	inconclusive: 31.6 µM [activator, partial curve, poor fit]	
Cc1ccccc1Nc1nc(N)nc(CSc2nnc(C)n2C)n1		inactive: 4.91%
CCCN(CCC)S(=O)(=O)c1ccc2c(c1)N(CC(=O)NC(C)c1ccccc1)C(=O)CS2 (centres undefined)	inconclusive: 28.2 µM [activator, single point]	
CC(=O)Nc1ccc(Oc2cc(C#N)c(C#N)cc2N2CCCCCC2)cc1	inconclusive: 25.1 µM [activator, single point]	
COc1ccc(S(=O)(=O)c2ccc(OC)cc2)cc1	inconclusive: 12.6 µM [activator, partial curve, poor fit]	
Cc1cc(=O)c2ccccc2[nH]1	inconclusive: 0.891 µM [activator, full curve, poor fit]	
COCCNC(=O)C(c1ccc(C)o1)N(C(=O)c1snc(C(N)=O)c1N)c1ccc(C)c(C)c1 (centres undefined)	inconclusive: 17.8 µM [activator, partial curve]	
CCCCCCSc1ccc([C@H]2N[C@@](C)(C(=O)OC)[C@H]3C(=O)N(C)C(=O)[C@@H]23)cc1	active: 12.6 µM	
CN(C)c1ccc(C2(c3ccc(N(C)C)cc3)OC(=O)c3cc(N)ccc32)cc1	inconclusive: 11.2 µM [activator, full curve, poor fit]	
O=C(CSc1nc2ccccc2n1Cc1ccccc1)NNC(=S)Nc1ccccc1	inconclusive: 22.4 µM [activator, partial curve]	
COc1ccc(C(=O)OCC(N)=O)cc1[N+](=O)[O-]		inactive: 25.3%

Structure (SMILES)	Potency	growth rescue (activation)
CC(C)(C)OC(=O)NCCCCCNC(=O)c1nc[nH]c1C(=O)NCc1ccc(CNC(=O)OC(C)(C)C)cc1	inconclusive: 31.6 µM [activator, single point]	
O=C(Nc1c(C(=O)N2CCN(c3ccccc3)CC2)oc2ccccc12)c1ccco1	inconclusive: 28.2 µM [activator, single point]	
CC(C)C1C(=O)N(Cc2cn(CCC3OCCO3)nn2)CCS(=O)(=O)N1Cc1ccc(-c2ccccc2C(F)(F)F)cc1 (centres undefined)	inconclusive: 12.6 µM [activator, partial curve, poor fit]	
Cc1csc(NC(=O)c2ccc(COc3cccc(F)c3)o2)n1		inactive: 0.0303%
O=C1NCCOC(=O)[C@H](Cc2ccc(F)cc2)CC/C=C/C[C@@H]1CC(=O)N(CCO)Cc1ccccc1	inconclusive: 28.2 µM [activator, partial curve]	
CCOC(=O)N1CCN(C(=O)c2ccc3c(c2)N(Cc2ccc(F)cc2)CCS3)CC1	inconclusive: 10 µM [activator, partial curve]	
Cc1c(C(=O)NCCc2ccc(Cl)cc2)sc2nc3n(c(=O)c12)CCCC3	inconclusive: 22.4 µM [activator, partial curve, poor fit]	
CC(C)c1ccc(NC(=O)COC(=O)[C@@H]2CCCN2C(=O)c2cccs2)cc1	inconclusive: 31.6 µM [activator, single point]	
CN(C(=O)c1ccc(NC(=O)Cc2ccc(NC(=O)C3CCN(S(=O)(=O)c4cccc([N+](=O)[O-])c4)CC3)cc2)cc1)C1CCCC1	inconclusive: 20 µM [activator, single point]	
CC1CCCN(S(=O)(=O)c2ccc(C(=O)Nc3nnc(-c4ccncc4)o3)cc2)C1 (centres undefined)	inconclusive: 25.1 µM [activator, partial curve, poor fit]	
CCCCc1cc(=O)oc2cc(OS(C)(=O)=O)ccc12		inactive: 10.7%
CCCCC(=O)Nc1ccc2c(c1)nc1n2CCSC1	inconclusive: 31.6 µM [activator, single point]	
CC1=C(C(=O)Nc2ccccc2)C(c2cccs2)C(C#N)=C(SCC#N)N1 (centres undefined)	inconclusive: 10 µM [activator, partial curve]	
COc1ccc(NC(=O)CSc2nc3nc(C)c(Cc4ccccc4Cl)c(C)n3n2)cc1OC	inconclusive: 31.6 µM [activator, single point]	
COc1ccc(C)cc1NS(=O)(=O)c1cc2c3c(c1)CC(=O)N3CCC2	inconclusive: 50.1 µM [activator, single point]	
COc1cc2c(cc1OC)C(COc1cc(C)cc(C)c1)N(C(=O)COc1ccccc1)CC2 (centres undefined)	inconclusive: 35.5 µM [activator, single point]	
O=C(CNC(=O)C1CCCCC1)OCc1cc(=O)oc2ccc3ccccc3c12		inactive: -11.1%
C/C(=N\Nc1nc2ccccc2[nH]1)c1cc2ccccc2o1	inconclusive: 17.8 µM [activator, partial curve, poor fit]	
COCC#Cc1ccc(CC[C@H]2O[C@H]3CC[C@@H](CO)O[C@H]3C[C@H]2n2cc(C3CC3)nn2)cc1	inconclusive: 28.2 µM [activator, partial curve, poor fit]	

— PubChem BioAssay AID1347120 (National Center for Advancing Translational Sciences (NCATS), 2019)
